# Experimental data from the supplement of paper PMC8728848.
# This is one part of the list.
# B1: NanI (Corynebacterium diphtheriae), C6JSW7 (protein)
# chain: MTNTLESNPMTTTTGALTITFATTCDGPLAHIPHHLDLNIIHGRIQGTTAHRRIDAEDPDGLDDGLPHHLCLSVDTTGTHLFIDGYEAFSTTQTEWFDTSELTLNPHGDLTIIDHQILNHAPTPRQARNLAPAAEPLVWFAGSHLSTRDTQRISHLTHGSLRLLMKTRGTGQGGVAFQAHTINGDLTLEIIDGTLIFSVRCHDEDYVRITAPGRWDDGQIYDVVIVCGRGATDIYVDGQQLIHSPGAAFFNDLSGELSVHIGTAASGVRLFGEVQSGMIYPHVFNHHQVQRLATVEPIATQALFDCLLDGAQSYRIPSLITTDSGVIIAGADKRVSIANDAPNDIDFVLRRSVDGGRTWQPPRTILQLPDTACVTDSVLLQDHTTGRIFAFLDQFPAGIGQPNAAFGTGFDADGNRIGHFADGSTCTMPREVDQLEASFFSDPHTAPPGIVFQHPSCHLWMLTSDDDGLTWSTPRDLTPDVKEEWMRFCGTSPGNGIQLQRDTHAGRLLIPMYYTKGDQFFAAALYSDDHGDTWHRGESPDLEMYESTLVEASDGSVLLWARNQHPSGAVAHARSTDGGHSWSQVTFNPNVPEIFSQPNALRVTNPDGIIFANASQLLPFRGRGVLRMSTNDGASWQHNRVFNPRHYVYQCMTQLPDGSIGLLWEREMQGLFFSIIPMTWIMQGYAL
# What was measured:
# Assay in all cases: glycan array binding signal (z-score within array); higher = stronger binding
# Conditions in all cases: glycan notation: IUPAC condensed, linker removed
# [1] = target: Neu5Ac9Ac(a2-3)Gal(b1-4)GlcNAc
# In short: (§1)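 Arrays were curated from the Consortium for Functional Glycomics database, 3228 in total, and kept only where the protein sequence was available. Binding is expressed as a within-array Z-score. This score was averaged across arrays of the same protein sequence at different concentrations or buffers and across linkers, and negative values can be read as non-binding.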
# [2] = target: Neu5Ac9Ac(a2-6)Gal(b1-4)GlcNAc
# In short: as §1
# [3] = target: Neu5Gc(a2-3)Gal(b1-3)GlcNAc
# In short: as §1
# [4] = target: Neu5Gc(a2-3)Gal(b1-3)[Fuc(a1-4)]GlcNAc
# In short: as §1
# Neu5Gc(a2-3)Gal(b1-4)Glc = target: Neu5Gc(a2-3)Gal(b1-4)Glc
# In short: as §1
# [5] = target: Neu5Gc(a2-3)Gal(b1-4)GlcNAc
# In short: as §1
# [6] = target: Neu5Gc(a2-3)Gal(b1-4)[Fuc(a1-3)]GlcNAc
# In short: as §1
# [7] = target: Neu5Gc(a2-6)Gal(b1-4)GlcNAc
# In short: as §1
# Neu5Gc(a2-6)GalNAc = target: Neu5Gc(a2-6)GalNAc
# In short: as §1
# [8] = target: Neu5Gc(b2-6)Gal(b1-4)GlcNAc
# In short: as §1
binder,measurement,setting,value
B1,glycan array binding signal (z-score),[1],-0.533
same,glycan array binding signal (z-score),[2],-0.403
same,glycan array binding signal (z-score),[3],-0.055
same,glycan array binding signal (z-score),[4],-0.442
same,glycan array binding signal (z-score),Neu5Gc(a2-3)Gal(b1-4)Glc,0.226
same,glycan array binding signal (z-score),[5],0.121
same,glycan array binding signal (z-score),[6],0.452
same,glycan array binding signal (z-score),[7],-0.588
same,glycan array binding signal (z-score),Neu5Gc(a2-6)GalNAc,0.185
same,glycan array binding signal (z-score),[8],-0.807
